Laboratory results published in publication PMC5062570 (Nature Communications, 2016).
Several values for one entry are separate records, joined by “and”; a condition that tells them apart may be missing. Identical values can stand only once.

Experiments:
[1] = target: PF-7802-labelled proteins in ARPE-19 cells (Homo sapiens, UniProt Q96RQ3)
[2] = target: PF-7802-labelled proteins in ARPE-19 cells (Homo sapiens, UniProt P38606); details: protein ATP6V1A V-type proton ATPase catalytic subunit A (P38606)
[3] = target: PF-7802-labelled proteins in ARPE-19 cells (Homo sapiens, UniProt O43707); details: O43707 ACTN4 Alpha-actinin-4
[4] = target: PF-7802-labelled proteins in ARPE-19 cells (Homo sapiens, UniProt P24844); details: protein MYL9 Myosin regulatory light polypeptide 9 (P24844); replicates in separate columns
[5] = target: PF-7802-labelled proteins in ARPE-19 cells (Homo sapiens, UniProt P46779); details: protein RPL28 60S ribosomal protein L28, P46779
[6] = target: PF-7802-labelled proteins in ARPE-19 cells (Homo sapiens, UniProt Q01082)
[7] = target: PF-7802-labelled proteins in ARPE-19 cells (Homo sapiens, UniProt P50454); details: SERPINH1 Serpin H1 (P50454)
[8] = target: PF-7802-labelled proteins in ARPE-19 cells (Homo sapiens, UniProt Q16695); details: protein HIST3H3 Histone H3.1t (Q16695); one column per replicate
[9] = target: PF-7802-labelled proteins in ARPE-19 cells (Homo sapiens, UniProt P04075); details: protein ALDOA Fructose-bisphosphate aldolase A (P04075)
[10] = target: PF-7802-labelled proteins in ARPE-19 cells (Homo sapiens, UniProt Q16778)
[11] = target: PF-7802-labelled proteins in ARPE-19 cells (Homo sapiens, UniProt P05165)
[12] = target: PF-7802-labelled proteins in ARPE-19 cells (Homo sapiens, UniProt P10155); details: TROVE2 60 kDa SS-A/Ro ribonucleoprotein (P10155)
[13] = target: PF-7802-labelled proteins in ARPE-19 cells (Homo sapiens, UniProt P16403); details: P16403 HIST1H1C Histone H1.2
[14] = target: PF-7802-labelled proteins in ARPE-19 cells (Homo sapiens, UniProt Q9H7M9); details: protein C10orf54 Platelet receptor Gi24 (Q9H7M9)
[15] = target: PF-7802-labelled proteins in ARPE-19 cells (Homo sapiens, UniProt P07900)
[16] = target: PF-7802-labelled proteins in ARPE-19 cells (Homo sapiens, UniProt P99999); details: protein CYCS Cytochrome c (P99999)
[17] = target: PF-7802-labelled proteins in ARPE-19 cells (Homo sapiens, UniProt Q9NVI7); details: protein ATAD3A ATPase family AAA domain-containing protein 3A (Q9NVI7)
[18] = target: PF-7802-labelled proteins in ARPE-19 cells (Homo sapiens, UniProt Q8N1N4); details: protein KRT78 Keratin, type II cytoskeletal 78 (Q8N1N4); one column per replicate
[19] = target: PF-7802-labelled proteins in ARPE-19 cells (Homo sapiens, UniProt Q6A162); details: protein KRT40 Keratin, type I cytoskeletal 40 (Q6A162); one column per replicate
[20] = target: PF-7802-labelled proteins in ARPE-19 cells (Homo sapiens, UniProt P25398); details: protein RPS12 40S ribosomal protein S12, P25398
[21] = target: PF-7802-labelled proteins in ARPE-19 cells (Homo sapiens, UniProt O00151); details: protein PDLIM1 PDZ and LIM domain protein 1 (O00151); replicates in separate columns
[22] = target: PF-7802-labelled proteins in ARPE-19 cells (Homo sapiens, UniProt P55265); details: protein ADAR Double-stranded RNA-specific adenosine deaminase (P55265)
[23] = target: PF-7802-labelled proteins in ARPE-19 cells (Homo sapiens, UniProt Q06830); details: protein PRDX1 Peroxiredoxin-1, Q06830
[24] = target: PF-7802-labelled proteins in ARPE-19 cells (Homo sapiens, UniProt Q8IY17); details: protein PNPLA6 Neuropathy target esterase (Q8IY17); replicates in separate columns
[25] = target: PF-7802-labelled proteins in ARPE-19 cells (Homo sapiens, UniProt P56134); details: protein ATP5J2 ATP synthase subunit f, mitochondrial (P56134)
[26] = target: PF-7802-labelled proteins in ARPE-19 cells (Homo sapiens, UniProt Q9UHD8); details: SEPT9 Septin-9 (Q9UHD8)
Sequence of UniProt Q9UHD8 (Q9UHD8 whole entry): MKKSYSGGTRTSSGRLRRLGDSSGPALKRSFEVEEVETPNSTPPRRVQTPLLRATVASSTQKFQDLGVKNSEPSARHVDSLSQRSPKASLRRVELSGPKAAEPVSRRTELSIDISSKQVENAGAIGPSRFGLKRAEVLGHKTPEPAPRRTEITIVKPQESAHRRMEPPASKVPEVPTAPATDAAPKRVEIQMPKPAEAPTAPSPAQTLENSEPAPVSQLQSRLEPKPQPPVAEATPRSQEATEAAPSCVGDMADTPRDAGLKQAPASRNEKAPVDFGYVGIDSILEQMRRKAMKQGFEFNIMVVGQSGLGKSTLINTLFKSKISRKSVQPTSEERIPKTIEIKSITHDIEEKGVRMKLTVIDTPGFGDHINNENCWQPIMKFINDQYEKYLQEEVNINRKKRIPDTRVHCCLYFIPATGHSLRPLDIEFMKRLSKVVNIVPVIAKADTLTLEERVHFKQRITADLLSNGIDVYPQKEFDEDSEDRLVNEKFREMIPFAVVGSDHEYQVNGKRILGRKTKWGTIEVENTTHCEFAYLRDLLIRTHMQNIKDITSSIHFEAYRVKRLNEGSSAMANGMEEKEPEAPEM

Sequence of UniProt P99999 (P99999 whole entry, the tested form may be a part): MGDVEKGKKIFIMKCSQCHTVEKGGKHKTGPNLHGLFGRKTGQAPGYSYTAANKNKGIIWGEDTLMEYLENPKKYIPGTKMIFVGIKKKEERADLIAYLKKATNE
Sequence of UniProt Q01082 (Q01082 whole entry): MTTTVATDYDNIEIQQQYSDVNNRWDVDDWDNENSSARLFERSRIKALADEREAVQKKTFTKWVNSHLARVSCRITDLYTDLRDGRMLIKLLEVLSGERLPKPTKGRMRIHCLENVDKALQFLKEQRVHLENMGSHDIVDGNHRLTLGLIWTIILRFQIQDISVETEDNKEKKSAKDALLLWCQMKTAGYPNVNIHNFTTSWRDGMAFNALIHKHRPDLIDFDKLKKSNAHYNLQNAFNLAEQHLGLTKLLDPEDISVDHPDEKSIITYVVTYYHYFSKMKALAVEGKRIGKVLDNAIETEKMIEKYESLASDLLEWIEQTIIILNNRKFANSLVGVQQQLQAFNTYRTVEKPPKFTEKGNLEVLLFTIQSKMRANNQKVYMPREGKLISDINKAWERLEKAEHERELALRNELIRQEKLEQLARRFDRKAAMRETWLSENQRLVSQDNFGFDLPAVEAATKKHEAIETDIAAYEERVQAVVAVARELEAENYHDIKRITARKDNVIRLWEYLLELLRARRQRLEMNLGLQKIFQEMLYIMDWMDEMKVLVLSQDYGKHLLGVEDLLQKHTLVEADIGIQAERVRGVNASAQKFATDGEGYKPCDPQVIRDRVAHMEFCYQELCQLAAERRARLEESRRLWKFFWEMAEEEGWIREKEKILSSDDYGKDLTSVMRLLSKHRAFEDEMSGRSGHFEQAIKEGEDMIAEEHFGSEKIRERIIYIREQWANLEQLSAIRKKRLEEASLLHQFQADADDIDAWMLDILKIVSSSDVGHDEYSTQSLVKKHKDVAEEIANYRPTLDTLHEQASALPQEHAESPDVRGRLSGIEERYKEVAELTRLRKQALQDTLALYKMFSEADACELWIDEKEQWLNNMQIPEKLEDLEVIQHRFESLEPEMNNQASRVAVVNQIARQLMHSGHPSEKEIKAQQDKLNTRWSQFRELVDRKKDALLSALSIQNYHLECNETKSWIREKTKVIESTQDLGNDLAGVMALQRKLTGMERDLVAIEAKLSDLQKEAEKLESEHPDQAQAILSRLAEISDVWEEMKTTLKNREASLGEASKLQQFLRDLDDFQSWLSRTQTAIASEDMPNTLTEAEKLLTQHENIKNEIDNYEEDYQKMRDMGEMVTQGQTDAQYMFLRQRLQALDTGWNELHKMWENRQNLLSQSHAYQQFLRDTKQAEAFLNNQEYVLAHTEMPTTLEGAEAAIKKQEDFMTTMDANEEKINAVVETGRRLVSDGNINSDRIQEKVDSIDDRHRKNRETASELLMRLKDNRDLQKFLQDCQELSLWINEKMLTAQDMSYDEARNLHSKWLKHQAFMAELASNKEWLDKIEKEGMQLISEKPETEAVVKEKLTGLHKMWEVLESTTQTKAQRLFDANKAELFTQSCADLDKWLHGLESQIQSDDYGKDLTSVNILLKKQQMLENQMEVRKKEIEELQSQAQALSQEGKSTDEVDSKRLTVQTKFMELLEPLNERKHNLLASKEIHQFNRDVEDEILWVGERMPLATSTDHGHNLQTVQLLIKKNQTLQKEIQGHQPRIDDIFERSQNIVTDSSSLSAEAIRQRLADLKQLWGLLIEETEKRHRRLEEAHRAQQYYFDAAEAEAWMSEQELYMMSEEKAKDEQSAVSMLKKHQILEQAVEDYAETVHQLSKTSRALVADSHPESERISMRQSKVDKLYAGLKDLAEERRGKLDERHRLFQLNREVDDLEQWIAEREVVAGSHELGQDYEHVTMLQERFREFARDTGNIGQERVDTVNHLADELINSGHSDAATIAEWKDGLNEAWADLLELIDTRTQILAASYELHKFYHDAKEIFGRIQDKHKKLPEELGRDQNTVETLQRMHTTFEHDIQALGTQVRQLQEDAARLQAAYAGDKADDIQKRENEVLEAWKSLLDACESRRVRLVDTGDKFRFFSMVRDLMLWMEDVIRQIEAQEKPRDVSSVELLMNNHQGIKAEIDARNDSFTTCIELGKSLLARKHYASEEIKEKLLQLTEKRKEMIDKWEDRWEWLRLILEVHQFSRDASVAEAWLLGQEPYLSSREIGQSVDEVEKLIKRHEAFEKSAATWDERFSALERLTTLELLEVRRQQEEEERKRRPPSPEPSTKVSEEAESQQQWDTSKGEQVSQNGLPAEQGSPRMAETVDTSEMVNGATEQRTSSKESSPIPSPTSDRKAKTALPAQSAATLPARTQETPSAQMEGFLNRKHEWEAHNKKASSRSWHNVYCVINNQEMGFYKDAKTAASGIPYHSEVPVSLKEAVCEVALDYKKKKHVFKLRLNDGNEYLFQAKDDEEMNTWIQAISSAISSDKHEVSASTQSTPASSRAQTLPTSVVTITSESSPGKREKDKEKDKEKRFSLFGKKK
Sequence of UniProt Q06830 (Q06830 whole entry): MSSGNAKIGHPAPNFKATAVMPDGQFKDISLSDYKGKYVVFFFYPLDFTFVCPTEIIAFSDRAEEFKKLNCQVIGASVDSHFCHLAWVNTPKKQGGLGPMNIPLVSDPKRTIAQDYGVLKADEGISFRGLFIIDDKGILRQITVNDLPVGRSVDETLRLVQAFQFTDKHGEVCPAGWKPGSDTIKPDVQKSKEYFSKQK
Sequence of UniProt P10155 (P10155 whole entry): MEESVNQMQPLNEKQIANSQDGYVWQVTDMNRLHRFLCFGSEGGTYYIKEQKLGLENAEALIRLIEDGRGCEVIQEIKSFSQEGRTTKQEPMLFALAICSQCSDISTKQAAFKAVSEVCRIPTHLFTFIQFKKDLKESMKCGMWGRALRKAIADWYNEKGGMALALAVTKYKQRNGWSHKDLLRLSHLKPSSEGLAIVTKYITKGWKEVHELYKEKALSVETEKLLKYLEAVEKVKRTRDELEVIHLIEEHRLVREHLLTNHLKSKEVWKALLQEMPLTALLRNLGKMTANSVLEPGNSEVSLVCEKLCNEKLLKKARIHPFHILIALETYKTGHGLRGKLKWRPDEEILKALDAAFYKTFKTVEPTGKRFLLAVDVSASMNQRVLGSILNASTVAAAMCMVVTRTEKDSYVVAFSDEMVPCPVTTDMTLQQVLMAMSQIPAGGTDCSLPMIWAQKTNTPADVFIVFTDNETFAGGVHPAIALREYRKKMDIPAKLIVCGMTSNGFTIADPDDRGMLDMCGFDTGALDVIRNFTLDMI
Sequence of UniProt P24844 (P24844 whole entry): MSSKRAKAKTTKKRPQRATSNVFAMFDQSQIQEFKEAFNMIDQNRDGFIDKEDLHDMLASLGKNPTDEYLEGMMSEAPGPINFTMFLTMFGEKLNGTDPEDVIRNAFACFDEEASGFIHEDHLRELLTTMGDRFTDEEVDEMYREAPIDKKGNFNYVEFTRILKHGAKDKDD
Sequence of UniProt P04075 (P04075 whole entry): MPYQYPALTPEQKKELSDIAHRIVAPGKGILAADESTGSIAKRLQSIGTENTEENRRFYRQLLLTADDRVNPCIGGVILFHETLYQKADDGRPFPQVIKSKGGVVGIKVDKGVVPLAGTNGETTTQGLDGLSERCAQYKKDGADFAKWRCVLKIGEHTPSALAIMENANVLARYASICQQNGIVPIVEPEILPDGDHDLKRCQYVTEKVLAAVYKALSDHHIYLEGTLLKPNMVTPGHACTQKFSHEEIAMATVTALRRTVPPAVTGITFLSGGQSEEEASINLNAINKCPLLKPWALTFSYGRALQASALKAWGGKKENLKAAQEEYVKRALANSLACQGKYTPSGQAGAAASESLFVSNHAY
Sequence of UniProt O00151 (O00151 whole entry, the tested form may be a part): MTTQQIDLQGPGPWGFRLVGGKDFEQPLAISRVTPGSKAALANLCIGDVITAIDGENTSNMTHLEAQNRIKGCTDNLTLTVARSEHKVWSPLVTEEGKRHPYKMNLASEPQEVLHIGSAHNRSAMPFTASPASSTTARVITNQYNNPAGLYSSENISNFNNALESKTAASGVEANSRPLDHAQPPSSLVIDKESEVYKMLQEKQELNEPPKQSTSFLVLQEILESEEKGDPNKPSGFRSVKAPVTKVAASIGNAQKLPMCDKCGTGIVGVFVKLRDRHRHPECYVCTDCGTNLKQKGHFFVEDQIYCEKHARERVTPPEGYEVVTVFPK
Sequence of UniProt P16403 (P16403 whole entry): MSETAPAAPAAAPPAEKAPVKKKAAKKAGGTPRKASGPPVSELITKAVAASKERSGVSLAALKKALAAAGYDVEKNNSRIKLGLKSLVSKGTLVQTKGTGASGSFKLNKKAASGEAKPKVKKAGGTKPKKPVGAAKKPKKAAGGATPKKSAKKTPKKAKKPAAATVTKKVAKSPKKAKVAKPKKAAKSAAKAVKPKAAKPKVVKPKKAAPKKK
Sequence of UniProt P56134 (P56134 whole entry): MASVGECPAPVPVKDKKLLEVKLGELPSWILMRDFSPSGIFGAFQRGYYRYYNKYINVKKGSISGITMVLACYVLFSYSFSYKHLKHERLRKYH

SMILES: CNC1CCN(C(=O)C[C@@H](Cc2ccccc2)C(=O)N[C@@H](CSC)C(=O)N[C@@H](CC2CCCCC2)[C@@H](O)C(=O)OC(C)C)CC1 [CP-108671, reference compound]
- SILAC ratio (DMSO/CP-108671) ([1]; Q96RQ3 MCCC1 Methylcrotonoyl-CoA carboxylase subunit alpha, mitochondrial): 0.86
- Median SILAC Ratio (Heavy/Light) ([1]; protein MCCC1 Methylcrotonoyl-CoA carboxylase subunit alpha, mitochondrial (Q96RQ3), replicates in separate columns): 1.161
- Median SILAC Ratio (Heavy/Light) [2]: 2.128
- SILAC ratio (DMSO/CP-108671) [3]: 0.65
- Median SILAC Ratio (Heavy/Light) [4]: 1.817
- Median SILAC Ratio (Heavy/Light) [5]: 1.59
- SILAC ratio (DMSO/CP-108671) ([6]; Q01082 SPTBN1 Spectrin beta chain, non-erythrocytic 1): 0.85
- Median SILAC Ratio (Heavy/Light) ([6]; SPTBN1 Spectrin beta chain, non-erythrocytic 1 (Q01082)): 1.177
- Median SILAC Ratio (Heavy/Light) [7]: 1.405
- Median SILAC Ratio (Heavy/Light) [8]: 1.079
- Median SILAC Ratio (Heavy/Light) [9]: 2.871
- SILAC ratio (DMSO/CP-108671) ([10]; Q16778 HIST2H2BE Histone H2B type 2-E): 0.95
- Median SILAC Ratio (Heavy/Light) ([10]; protein HIST2H2BE Histone H2B type 2-E (Q16778), one column per replicate): 1.047 and 1.132
- SILAC ratio (DMSO/CP-108671) ([11]; P05165 PCCA Propionyl-CoA carboxylase alpha chain, mitochondrial): 0.91
- Median SILAC Ratio (Heavy/Light) ([11]; protein PCCA Propionyl-CoA carboxylase alpha chain, mitochondrial (P05165), replicates in separate columns): 1.139 and 0.7997
- Median SILAC Ratio (Heavy/Light) [12]: 1.799
- SILAC ratio (DMSO/CP-108671) [13]: 0.89
- Median SILAC Ratio (Heavy/Light) [14]: 0.9313
- SILAC ratio (DMSO/CP-108671) ([15]; P07900 HSP90AA1 Heat shock protein HSP 90-alpha): 0.52
- Median SILAC Ratio (Heavy/Light) ([15]; protein HSP90AA1 Heat shock protein HSP 90-alpha (P07900), one column per replicate): 1.922

SMILES: Cc1cc([C@H]2C[C@H]3[C@@H](C)SC(N)=N[C@@]3(c3ccc(F)cc3F)CO2)on1 [PF-9283]
- Median SILAC Ratio (Heavy/Light) [16]: 1.201 and 0.8242 and 0.9774
- Median SILAC Ratio (Heavy/Light) [17]: 1.1156
- Median SILAC Ratio (Heavy/Light) [18]: 10.761
- Median SILAC Ratio (Heavy/Light) [19]: 81.831
- Median SILAC Ratio (Heavy/Light) [20]: 1.69
- Median SILAC Ratio (Heavy/Light) [21]: 2.061
- Median SILAC Ratio (Heavy/Light) [22]: 1.375
- Median SILAC Ratio (Heavy/Light) [23]: 2.266 and 2.5408
- Median SILAC Ratio (Heavy/Light) [24]: 0.8659
- Median SILAC Ratio (Heavy/Light) [25]: 0.7563
- Median SILAC Ratio (Heavy/Light) [26]: 1.366 and 0.9279
